The record followed here is the supplement of paper PMC11876631.

The chains are these.
B1: glnS I434A (protein)
chain: MSEAEARPTNFIRQIIDEDLASGKHTTVHTRFPPEPNGYLHIGHAKSICLNFGIAQDYKGQCNLRFDDTNPVKEDIEYVESIKNDVEWLGFHWSGNVRYSSDYFDQLHAYAIELINKGLAYVDELTPEQIREYRGTLTQPGKNSPYRDRSVEENLALFEKMRAGGFEEGKACLRAKIDMASPFIVMRDPVLYRIKFAEHHQTGNKWCIYPMYDFTHCISDALEGITHSLCTLEFQDNRRLYDWVLDNITIPVHPRQYEFSRLNLEYTVMSKRKLNLLVTDKHVEGWDDPRMPTISGLRRRGYTAASIREFCKRIGVTKQDNTIEMASLESCIREDLNENAPRAMAVIDPVKLVIENYQGEGEMVTMPNHPNKPEMGSRQVPFSGEIWIDRADFREEANKQYKRLVLGKEVRLRNAYVIKAERVEKDAEGNITTAFCTYDADTLSKDPADGRKVKGVIHWVSAAHALPVEIRLYDRLFSVPNPGAADDFLSVINPESLVIKQGFAEPSLKDAVAGKAFQFEREGYFCLDSRHSTAEKPVFNRTVGLRDTWAKVGE
B2: glnS I457D (protein)
chain: MSEAEARPTNFIRQIIDEDLASGKHTTVHTRFPPEPNGYLHIGHAKSICLNFGIAQDYKGQCNLRFDDTNPVKEDIEYVESIKNDVEWLGFHWSGNVRYSSDYFDQLHAYAIELINKGLAYVDELTPEQIREYRGTLTQPGKNSPYRDRSVEENLALFEKMRAGGFEEGKACLRAKIDMASPFIVMRDPVLYRIKFAEHHQTGNKWCIYPMYDFTHCISDALEGITHSLCTLEFQDNRRLYDWVLDNITIPVHPRQYEFSRLNLEYTVMSKRKLNLLVTDKHVEGWDDPRMPTISGLRRRGYTAASIREFCKRIGVTKQDNTIEMASLESCIREDLNENAPRAMAVIDPVKLVIENYQGEGEMVTMPNHPNKPEMGSRQVPFSGEIWIDRADFREEANKQYKRLVLGKEVRLRNAYVIKAERVEKDAEGNITTIFCTYDADTLSKDPADGRKVKGVDHWVSAAHALPVEIRLYDRLFSVPNPGAADDFLSVINPESLVIKQGFAEPSLKDAVAGKAFQFEREGYFCLDSRHSTAEKPVFNRTVGLRDTWAKVGE
B3: glnS I457W (protein)
chain: MSEAEARPTNFIRQIIDEDLASGKHTTVHTRFPPEPNGYLHIGHAKSICLNFGIAQDYKGQCNLRFDDTNPVKEDIEYVESIKNDVEWLGFHWSGNVRYSSDYFDQLHAYAIELINKGLAYVDELTPEQIREYRGTLTQPGKNSPYRDRSVEENLALFEKMRAGGFEEGKACLRAKIDMASPFIVMRDPVLYRIKFAEHHQTGNKWCIYPMYDFTHCISDALEGITHSLCTLEFQDNRRLYDWVLDNITIPVHPRQYEFSRLNLEYTVMSKRKLNLLVTDKHVEGWDDPRMPTISGLRRRGYTAASIREFCKRIGVTKQDNTIEMASLESCIREDLNENAPRAMAVIDPVKLVIENYQGEGEMVTMPNHPNKPEMGSRQVPFSGEIWIDRADFREEANKQYKRLVLGKEVRLRNAYVIKAERVEKDAEGNITTIFCTYDADTLSKDPADGRKVKGVWHWVSAAHALPVEIRLYDRLFSVPNPGAADDFLSVINPESLVIKQGFAEPSLKDAVAGKAFQFEREGYFCLDSRHSTAEKPVFNRTVGLRDTWAKVGE
B4: glnS I457A (protein)
chain: MSEAEARPTNFIRQIIDEDLASGKHTTVHTRFPPEPNGYLHIGHAKSICLNFGIAQDYKGQCNLRFDDTNPVKEDIEYVESIKNDVEWLGFHWSGNVRYSSDYFDQLHAYAIELINKGLAYVDELTPEQIREYRGTLTQPGKNSPYRDRSVEENLALFEKMRAGGFEEGKACLRAKIDMASPFIVMRDPVLYRIKFAEHHQTGNKWCIYPMYDFTHCISDALEGITHSLCTLEFQDNRRLYDWVLDNITIPVHPRQYEFSRLNLEYTVMSKRKLNLLVTDKHVEGWDDPRMPTISGLRRRGYTAASIREFCKRIGVTKQDNTIEMASLESCIREDLNENAPRAMAVIDPVKLVIENYQGEGEMVTMPNHPNKPEMGSRQVPFSGEIWIDRADFREEANKQYKRLVLGKEVRLRNAYVIKAERVEKDAEGNITTIFCTYDADTLSKDPADGRKVKGVAHWVSAAHALPVEIRLYDRLFSVPNPGAADDFLSVINPESLVIKQGFAEPSLKDAVAGKAFQFEREGYFCLDSRHSTAEKPVFNRTVGLRDTWAKVGE
B5: glnS I457Q (protein)
chain: MSEAEARPTNFIRQIIDEDLASGKHTTVHTRFPPEPNGYLHIGHAKSICLNFGIAQDYKGQCNLRFDDTNPVKEDIEYVESIKNDVEWLGFHWSGNVRYSSDYFDQLHAYAIELINKGLAYVDELTPEQIREYRGTLTQPGKNSPYRDRSVEENLALFEKMRAGGFEEGKACLRAKIDMASPFIVMRDPVLYRIKFAEHHQTGNKWCIYPMYDFTHCISDALEGITHSLCTLEFQDNRRLYDWVLDNITIPVHPRQYEFSRLNLEYTVMSKRKLNLLVTDKHVEGWDDPRMPTISGLRRRGYTAASIREFCKRIGVTKQDNTIEMASLESCIREDLNENAPRAMAVIDPVKLVIENYQGEGEMVTMPNHPNKPEMGSRQVPFSGEIWIDRADFREEANKQYKRLVLGKEVRLRNAYVIKAERVEKDAEGNITTIFCTYDADTLSKDPADGRKVKGVQHWVSAAHALPVEIRLYDRLFSVPNPGAADDFLSVINPESLVIKQGFAEPSLKDAVAGKAFQFEREGYFCLDSRHSTAEKPVFNRTVGLRDTWAKVGE

± gives the standard deviation of the averaged measurements. Laboratory Escherichia coli strains with one amino-acid change in an essential protein, pooled on minimal glucose agar with carbenicillin or gentamicin at twice the control MIC (plus kanamycin and chloramphenicol for the plasmids), 48 h. Fold change of barcode share against drug-free plates; higher = less susceptible. Active = above 20 in both replicates (the paper's putatively resistant). '<' = one read or none on drug, '>' = one read or none on a drug-free plate. Shares are relative, so most strains fall below 1 when a few take over. Listed are strains with at least 15 reads on both drug-free plates, and hits; most hits rest on fewer reference reads. Replicate rank correlation about 0.5. Edits are read from barcodes. Bounds are passed on as bounds.

The target of the first data set is Escherichia coli (laboratory strain). Nature of the data set: barcode share on antibiotic plates over drug-free plates; higher = less susceptible. Conditions: antibiotic: carbenicillin; 2× MIC (3.1 µg/mL). As to the method: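 A pool of E. coli strains, each edited to carry one amino-acid change in an essential protein, was grown for 48 h on minimal glucose agar with or without antibiotic; strain barcodes were sequenced; mean of two replicates.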
As to B1, the “fold change of barcode share” value was 0.344 ± 0.12.
Same read-out and setting: then B2, with 0.486 ± 0.15; and B3, with 0.325 ± 0.095; and B4, with 0.402 ± 0.14.
Take B5: the “fold change of barcode share” value worked out at 0.644 ± 0.52.

Still in this data set, the particulars now being: antibiotic: gentamicin; 2× MIC (MIC 0.45 µg/mL).
Take B1: the “fold change of barcode share” value is under 0.00556.
With B2, the “fold change of barcode share” value stood at 0.0121 ± 0.0074.
The same measure, in the same setting: the figure for B3 is under 0.0137; for B4 it is 0.00466 ± 0.0038.
On the same count and under the same terms, then B5, with 0.0084 ± 0.0011.
